Experimental data from patent US20090023895A1.

Target: HLA-A2 molecule (a product of the HLA-A*0206 gene) (human)

Row | Binder | -log Kd (Binding Experiment Data)
1 | LQNSQVFSL (modifications not checked) [SEQ ID NO: 49 peptide] | 5.78 -log Kd
2 | LILYDKEEI (modifications not checked) [SEQ ID NO: 51 peptide] | 5.38 -log Kd
3 | SALILRGSV (modifications not checked) [SEQ ID NO: 37 peptide] | 3.84 -log Kd
4 | LIFLARSAL (modifications not checked) [SEQ ID NO: 52 peptide] | 3.73 -log Kd
5 | FQGRGVFEL (modifications not checked) [SEQ ID NO: 48 peptide] | 6.77 -log Kd
